PubChem BioAssay AID651820 (National Center for Advancing Translational Sciences (NCATS), 2012)
In all, about 340,000 compounds went through this assay and about 12,000 (3.5%) were called active. Inconclusive results, whose numbers are uncertain, are shown with a selection of clear calls. The call rests on the fitted dose curve; in most records, active means well fitted inhibition curve with a large enough effect; inconclusive means small, poorly fitted or top-dose-only effect, or another doubt; inactive means no such curve, though single readings can be large or run the other way. No potency is given beside an inconclusive call; the fits are too rough.

Test: qHTS Assay for Inhibitors of Hepatitis C Virus (HCV)
Settings: Huh7.5.1 HCVcc-Cre (HCVcc is cell-culture hepatitis C virus) infection, luciferase reporter, 44 h; series mostly up to 41.8 µM
Summary of the method: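 Infectious HCV cell culture screen: compound-treated cells (1,000/well, pre-plated 4 h) are infected with HCVcc-Cre at roughly 0.5 moi and grown 44 h. Infection is quantified by luciferase signal after 15 min substrate incubation at room temperature.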
Potency means the concentration at half of the fitted maximal effect; tags describe the fitted curve by direction and shape.

Row | SMILES | Potency
1 | CC(NC(=O)c1csc2ccccc12)C1CCCO1 (stereo not drawn) | inconclusive [inhibitor, single point]
2 | O=C(c1cnc(N2CCN(c3ncccn3)CC2)c2ccccc12)N1CCN(c2ccccn2)CC1 | inconclusive [inhibitor, partial curve]
3 | Cc1noc(C)c1CCC(=O)NC1CCCN(Cc2ccc(CC(C)C)cc2)C1 (stereo not drawn) | inconclusive [inhibitor, single point]
4 | COc1ccc2[nH]c(=O)c(CN(C(=O)c3cccnc3)c3ccc(C)c(C)c3)cc2c1 | inconclusive [inhibitor, single point]
5 | Cc1ccc2oc(=O)c3cc(C(=O)NCCCN4CCCCCC4)sc3c2c1 | inconclusive [inhibitor, partial curve]
6 | CCOc1ccc(N(CC(=O)Nc2cccc(Cl)c2)S(=O)(=O)c2c(C)noc2C)cc1 | active: 12.6 µM
7 | CCC(=O)N1CCc2cc(Br)cc(S(=O)(=O)N3CCCCCC3)c21 | inconclusive [inhibitor, partial curve]
8 | NC(=O)COc1ccc2cc(-c3ccccc3)c(=O)oc2c1 | inactive
9 | COc1cccc(CN2CCC(n3nccc3NC(=O)CCCc3ccccc3)CC2)c1O | inconclusive [inhibitor, single point]
10 | O=C(NC(C(=O)c1ccccc1)N1CCCCCC1)c1ccco1 (stereo not drawn) | inactive
11 | Cc1nc2ccccn2c1C(=O)OCC#N | inactive
12 | Cc1cccc(S(=O)(=O)c2c(N)n(/N=C/c3cccnc3)c3nc4ccccc4nc23)c1 | inconclusive [inhibitor, full curve, poor fit]
13 | CCn1c(SCc2ccc(C#N)cc2)nnc1-c1ccc(S(=O)(=O)N2CCCCC2)cc1 | active: 7.94 µM
14 | COc1ccc(NC(=O)C2CCN(S(=O)(=O)c3c(C)noc3C)CC2)cc1Cl | inconclusive [inhibitor, partial curve]
15 | CNC(=S)N/N=C(\C)c1cccc(C(F)(F)F)c1 | inconclusive [inhibitor, partial curve]
16 | Cc1ccc(C2N(C)C(=O)c3ccccc3N2C)cc1 (stereo not drawn) | inconclusive [inhibitor, single point]
17 | CCCNC(=O)NS(=O)(=O)c1ccc(Cl)cc1 | inactive
18 | Cc1ccc(OCC(=O)Nc2ccccc2N2CCOCC2)c(C)c1 | inconclusive [inhibitor, single point]
19 | CCOc1ccc(NC2C=CS(=O)(=O)C2)cc1 (stereo not drawn) | inconclusive [inhibitor, single point]
20 | Cc1ccc(-n2c(C)nc3c(cnn3-c3ccc(C)c(C)c3)c2=O)cc1C | inactive
21 | Cc1cc(C(F)F)n2nc(C(=O)NCc3ccccc3F)nc2n1 | inconclusive [inhibitor, single point]
22 | O=C(c1ccccc1)c1c2c(cc3sc4ccccc4[n+]13)-c1cccc3cccc-2c13 | inconclusive [inhibitor, single point]
23 | Cc1nc(-n2ncc(C#N)c2N)c2c3c(sc2n1)CCC3 | inconclusive [inhibitor, full curve, poor fit]
24 | Cc1cc(Cl)cc(C)c1OCCOCCNCc1ccccc1 | inconclusive [inhibitor, single point]
25 | Oc1ccccc1CNCC12CC3CC(CC(C3)C1)C2 | inactive

Row | SMILES | Potency
26 | O=C(COc1ccc(Cl)cc1)N(c1ccc(Cl)cc1)C1CN2CCC1CC2 (stereo not drawn) | active: 25.1 µM
27 | COc1cccc(N(C(=O)c2cnccn2)C(C(=O)NC2CCCCC2)c2ccc(Cl)cc2)c1 (stereo not drawn) | inactive
28 | Cc1cc(C)n2c(Br)c(CSc3nc4ccccc4o3)nc2n1 | inconclusive [inhibitor, single point]
29 | CCOC(=O)CC1C(=O)NCCN1Cc1ccc(OC)c(OC)c1 (stereo not drawn) | inactive
30 | O=C(/C=C/c1ccco1)NC(=S)Nc1ccc(O)c(-c2nc3ccccc3s2)c1 | inconclusive [inhibitor, single point]
31 | COc1ccc(-c2csc(-c3ccc(O)cc3)n2)cc1 | inconclusive [inhibitor, full curve, poor fit]
32 | CC12CCC(=O)N1C(C(=O)NNC(=O)c1ccc(Br)cc1)CS2 (stereo not drawn) | inactive
33 | COc1cc(CN2CCNCC2)cc(OC)c1OC | inactive
34 | CCC(C)n1c(SCc2ccccc2)nc2ccsc2c1=O (stereo not drawn) | inconclusive [inhibitor, single point]
35 | Cc1cc(NC(=O)c2cc(C(C)C)on2)nn1Cc1ccc(Cl)cc1 | inconclusive [inhibitor, single point]
36 | Nc1c(C(=O)c2ccccc2)oc2ccc([N+](=O)[O-])cc12 | inactive
37 | CCOc1ccc2nc(NC(=O)C(NS(=O)(=O)c3cccc4nsnc34)C(C)C)sc2c1 (stereo not drawn) | inconclusive [inhibitor, single point]
38 | Cc1cc(C)nc(NC2=NCC(=O)N2c2ccc(F)c(Cl)c2)n1 | inconclusive [inhibitor, single point]
39 | CC(=O)Oc1ccc(C(=O)Nc2cccc(C(=O)NC(C)(C)C)c2)cc1 | active: 12.6 µM
40 | COc1cc(NC(=O)Cc2nn(C)c(=O)c3ccccc23)cc(OC)c1 | active: 10 µM
41 | CCCOc1ncnc2c1[nH]c1ccccc12 | inconclusive [inhibitor, partial curve]
42 | Cc1cc(-c2cc(-c3ccccc3)on2)nc(NC2CCCC2)n1 | inconclusive [inhibitor, single point]
43 | CCN(CC)S(=O)(=O)c1ccc(C(=O)NCCCN=C2NS(=O)(=O)c3ccccc32)cc1 | inconclusive [inhibitor, single point]
44 | Cc1cccn2c(=O)c(/C=C(\C#N)C(=O)NC3CCS(=O)(=O)C3)c(N3CC(C)OC(C)C3)nc12 (stereo not drawn) | inactive
45 | C=CCSc1n[nH]c(-c2ccc(OCCCC)cc2)n1 | inconclusive [inhibitor, single point]
46 | Cc1ccc(N(CN2CCCC2=O)C(=O)c2ccc(OC(C)C)cc2)cc1 | inactive
47 | O=C(c1cccc(S(=O)(=O)N2CCCc3ccccc32)c1)N1CCN(c2ccccc2)CC1 | inconclusive [inhibitor, single point]
48 | Cc1cc(C=C(C#N)C#N)c(C)n1-c1ccccc1 | inconclusive [inhibitor, partial curve, poor fit]
49 | CCOC(=O)c1cnc2c(ccc3ccccc32)c1NCCO | active: 11.2 µM
50 | C=C1C(=O)O[C@H]2[C@H]1[C@@H](O)CC(=C)[C@@H]1CC(=O)[C@@H](C)[C@H]21 | inconclusive [inhibitor, partial curve, poor fit]

Row | SMILES | Potency
51 | CCN(CC)CCCNC(=O)C1c2ccccc2C(=O)N(CCOC)C1c1ccc(F)cc1 (stereo not drawn) | inactive
52 | CCc1ccc(/C=C/C(=O)c2c(C)cc(C)[nH]c2=O)cc1 | inconclusive [inhibitor, single point]
53 | CCOC(=O)C1=C(C)N(C2CCCCC2)C(=O)C1 | inactive
54 | COc1ccc(OC)c(S(=O)(=O)N2CCC(C(=O)NCc3ccncc3)CC2)c1 | inactive
55 | O=C(NCc1ccco1)c1ccc(F)c(S(=O)(=O)N2CCCCC2)c1 | inactive
56 | CCC(C)(C)NC(=O)C(c1ccc(OC)cc1)N(CCOC)C(=O)CCC(=O)Nc1nccs1 (stereo not drawn) | inactive
57 | COCC(C)N1CC(O)=C(c2nc(-c3ccc(Cl)cc3)cs2)C1=N (stereo not drawn) | inconclusive [inhibitor, single point]
58 | N=C1S/C(=C\c2ccco2)C(=O)N1c1ccc2c(c1)OCO2 | inconclusive [inhibitor, single point]
59 | COc1ccc(NC(=O)c2nc(S(=O)(=O)Cc3cccc(C)c3)ncc2Cl)c(OC)c1 | inconclusive [inhibitor, single point]
60 | Cc1cccn2c(=O)c3cc(C(=O)NCC4CCCO4)c(=N)n(Cc4cccnc4)c3nc12 (stereo not drawn) | inactive
61 | Cc1ccnc(N2CCC(C(=O)Nc3ccc4c(c3)OCO4)CC2)n1 | inconclusive [inhibitor, single point]
62 | CCN(CC)c1cc(C)c2cc(NC(=O)CNC(C)=O)ccc2n1 | inconclusive [inhibitor, single point]
63 | O=C(COc1ccc(S(=O)(=O)NCc2ccccc2)cc1Cl)NCc1ccncc1 | inactive
64 | COc1ccc(C)cc1NC(=O)CCCN1C(=O)CCC1=O | inconclusive [inhibitor, single point]
65 | CSCC[C@H](NC(=O)c1ccco1)c1nnc2ccccn12 | inactive
66 | COc1ccc2c(C)cc(SCC(=O)Nc3ccc(Cl)cn3)nc2c1 | inconclusive [inhibitor, partial curve, poor fit]
67 | CCc1nnc(NC(=O)CCC(=O)NC2CC2)s1 | inactive
68 | O=C(CCn1c(=S)oc2ccccc21)NC1CCCCCC1 | inactive
69 | CC(C)c1ccc(NC(=O)CN2C(=O)NC(Cc3c[nH]c4ccccc34)C2=O)cc1 (stereo not drawn) | inconclusive [inhibitor, partial curve]
70 | COc1ccc(-c2cc(-c3ccccc3)c(C#N)c(SCC(=O)O)n2)cc1 | inactive
71 | O=C(Nc1ccc(OC(F)(F)F)cc1)Nc1cccc([N+](=O)[O-])c1 | inconclusive [inhibitor, partial curve]
72 | O=[N+]([O-])c1cccc(COc2cccc(CN3CCCC3)c2)c1 | inconclusive [inhibitor, single point]
73 | CSc1ccccc1NC(=O)c1cc(CC(C)C)on1 | inactive
